# Laboratory results published in the supplement of paper PMC11417369.
# The other results are listed elsewhere or left out.
# System: PfSIP2 AP2 domain 1 (GST-tagged)
# Assay: gcPBM binding intensity (ln(normalized median fluorescence intensity)); higher = stronger DNA binding
# Method in brief: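 Using an Agilent 4 × 180k array, primer-extended double-stranded 36-bp intergenic genomic probes and negative controls were exposed for 1 h to GST-fused P. falciparum DNA-binding domains expressed in E. coli. Binding was carried out in 1× PBS with 1% milk, 0.2 mg/ml BSA, 0.5% salmon testes DNA and 0.03% Triton X-100, and protein was detected with Alexa488 anti-GST antibody and a 488 nm scan. Binding intensity is the highest Masliner-normalised natural-log median intensity across replicate spots of either probe orientation.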
row,Sequence,gcPBM binding intensity (ln)
1,AGTAATATAATATAAGCACACGTGTATTTATTTAGG [CACACA_site7921],6.92
2,AAAAAAAAAAAAAAATACAAGCACATTTATATAAGC [GTGCAC_negctrl_site695],7.49
3,AAATACATTAAAATGACATGCAGATATATATCAAAA [TGCATGCA_site477],6.87
4,TATATATCAATATTTACACACATGCGCCCACATAAA [CACACA_site7185],7.57
5,AAAAAAAAAAGACACACACACACAAATACATACACA [CACACA_site6472],6.99
6,TGAATAAAGATATATACACACATATAGGTATATATC [CACACA_site6870],6.81
7,TGCTTATATTTTTATACACACAAGATACTTTTTGTT [CACACA_site1535],7.07
8,ATCTAAATAAAGTTAACACACACATAATATATATAT [CACACA_site8055],8.7
9,TTTTTTTCTTTTGGGAGTACCAACATTTTCACATAT [XGTACX_site1371],7.15
10,CTATGCCCCATATAAACACACAAATAAAAAGAATAT [CACACA_site2681],7.27
11,TGCAATGGAGCATAAAGTACATATAATTGTATTTTT [XGTACX_site7349],7.06
12,AATACAGAGGAAAATACACACGTATATATATAAATA [CACACA_site9125],6.88
13,TAGAATAATCCTTACACACACACACCCACGAATAAA [CACACA_site483],7.06
14,TTTTAAAAAAAAAAAAAAAAAAAAAAAAAAAAAAAA [CACACA_negctrl_site1343],6.99
15,TTTTAAAATTATTAGGTGCATATTTATTCTATATTT,10
16,TGTTTTTTTATTTTCACACATAATCCAATTATACAT [CACACA_site6070],7.38
17,AATAAAAATAATATAGTGCATAATATAAGGAAAAAA,9.36
18,TTAAAAAAATATAGAGCATGCTAAAAATAAAAAAAT [TGCATGCA_site794],6.97
19,CAACACTTAGATTTTAAGTTCACTGGTTAATATATA [CACACA_negctrl_site707],6.69
20,AGGTCTATATAATAAGTGCATTTTTTTTTTTTTTTT [GTGCAC_site9664],8.44
21,GTTATACTCATCAACACACACATACAACGTGGTGTA [CACACA_site4789],6.98
22,ATCAACAAAACATACACACACATATATATATATATA [CACACA_site2989],9.6

row,Sequence,gcPBM binding intensity (ln)
1,TTTCTATATCTATTTAATTAACTTTTTATACTGATT [GTGCAC_negctrl_site415],6.82
2,GCATCTCATTTGTGATGTACTATATTATCCGTTTTT [XGTACX_site7576],6.79
3,CACATAAAAAAATAAACACACATATGTATTTATATA [CACACA_site5718],6.77
4,CATATCATTGATTATAGTACACATACCATTTTTTAT [XGTACX_site6572],6.99
5,CGTATATGACAAAAGCGTACGCATCAGCAGAAAAAT [XGTACX_site6248],7.24
6,ATATATATATATATATGTACTGAATAAAGAACAAAA [XGTACX_site5400],9.08
7,AGAAATAAGAAATATACACACATATAAATATAAATA [CACACA_site7342],6.74
8,AAAAAAAATGATAATATACACACTTATGGGAGAGCG [CACACA_site2516],6.97
9,AGAATATGTTAAAAAAGTACATACTCTTTATATACG [XGTACX_site79],6.83
10,TAAAAAAAAACATATACACACAAAAACGTACACATA [CACACA_site1354],7.29
11,TTTTTTTCTCACAATCGTACATAAATACATATATAT [XGTACX_site3150],7.29
12,TAATGTACATAAACCGCACACATATAAAAAAATAAA [CACACA_site2851],7.59
13,TATATTTTTTAAACCACACACAATATAGAGTAGAAT [CACACA_site613],7.29
14,AGGGGAAATAAAATATAAATTATCATATATATATAT [XGTACX_negctrl_site366],8.85
15,TGTATATATAAACATGCACACGTGGTTGTATATATA [CACACA_site9078],7.64
16,AGAATTCGTTTAAAAAGTACATTCAATTTAATAATG [XGTACX_site6603],6.83
17,AATATTTTAAAAAAAAGTACATTATATATATATGTT [XGTACX_site8073],7.16
18,TAGTATTAAAATATTTGTACTTATATGTATTATATA [XGTACX_site538],6.89
19,TGTAGTCTGGAGAAGAGTACACAGTATCTGGTAACA [XGTACX_site2038],6.81
20,AATAAAAAGGAACACACACACACACGGATATAAATA [CACACA_site7658],7.07
21,TCATAGTATAGACACACACACACACGCATATAAATA [CACACA_site6915],7.17
22,TCTTTGTAAATTTCTTGTACGTAAATTTTTTTTAGG [XGTACX_site7062],7.21
